# Experimental data as given in the supplement of paper PMC8728848.
# Some of the results follow.
# Tests used:
# Assay in all cases: glycan array binding signal (z-score within array); higher = stronger binding
# Conditions in all cases: glycan notation: IUPAC condensed, linker removed
# Neu5Ac(a2-6)Gal = target: Neu5Ac(a2-6)Gal
# Method in brief: (§1)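 Glycan array data were curated from 3228 arrays in the Consortium for Functional Glycomics database and kept only where the protein sequence was available. Glycan names were converted to IUPAC-condensed notation, and columns mapping to the same glycan were averaged. The binding signal is a within-array Z-score, averaged across arrays of the same protein sequence at different concentrations or buffers and across linkers. Negative Z-scores can be read as non-binding.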
# [1] = target: Neu5Ac(a2-6)Gal(b1-3)GlcNAc(b1-3)[Gal(b1-4)GlcNAc(b1-6)]Gal(b1-4)Glc
# Method in brief: as §1
# Neu5Ac(a2-6)Gal(b1-4)Glc = target: Neu5Ac(a2-6)Gal(b1-4)Glc
# Method in brief: as §1
# [2] = target: Neu5Ac(a2-6)Gal(b1-4)GlcNAc
# Method in brief: as §1
# [3] = target: Neu5Ac(a2-6)Gal(b1-4)GlcNAc(b1-2)Man
# Method in brief: as §1
# [4] = target: Neu5Ac(a2-6)Gal(b1-4)GlcNAc(b1-2)Man(a1-3)Man(b1-4)GlcNAc(b1-4)GlcNAc
# Method in brief: as §1
# [5] = target: Neu5Ac(a2-6)Gal(b1-4)GlcNAc(b1-2)Man(a1-3)[Gal(b1-4)GlcNAc(b1-2)Man(a1-6)]Man(b1-4)GlcNAc(b1-4)GlcNAc
# Method in brief: as §1
# [6] = target: Neu5Ac(a2-6)Gal(b1-4)GlcNAc(b1-2)Man(a1-3)[GlcNAc(b1-2)Man(a1-6)]Man(b1-4)GlcNAc(b1-4)GlcNAc
# Method in brief: as §1
# [7] = target: Neu5Ac(a2-6)Gal(b1-4)GlcNAc(b1-2)Man(a1-3)[GlcNAc(b1-4)][Neu5Ac(a2-6)Gal(b1-4)GlcNAc(b1-2)Man(a1-6)]Man(b1-4)GlcNAc(b1-4)GlcNAc
# Method in brief: as §1
# [8] = target: Neu5Ac(a2-6)Gal(b1-4)GlcNAc(b1-2)Man(a1-3)[Man(a1-6)]Man(b1-4)GlcNAc(b1-4)GlcNAc
# Method in brief: as §1
# [9] = target: Neu5Ac(a2-6)Gal(b1-4)GlcNAc(b1-2)Man(a1-3)[Neu5Ac(a2-3)Gal(b1-4)GlcNAc(b1-2)Man(a1-6)]Man(b1-4)GlcNAc(b1-4)GlcNAc
# Method in brief: as §1
# [10] = target: Neu5Ac(a2-6)Gal(b1-4)GlcNAc(b1-2)Man(a1-3)[Neu5Ac(a2-6)Gal(b1-4)GlcNAc(b1-2)Man(a1-6)]Man(b1-4)GlcNAc(b1-4)GlcNAc
# Method in brief: as §1
# [11] = target: Neu5Ac(a2-6)Gal(b1-4)GlcNAc(b1-2)Man(a1-3)[Neu5Ac(a2-6)Gal(b1-4)GlcNAc(b1-2)Man(a1-6)]Man(b1-4)GlcNAc(b1-4)[Fuc(a1-6)]GlcNAc
# Method in brief: as §1
# [12] = target: Neu5Ac(a2-6)Gal(b1-4)GlcNAc(b1-2)Man(a1-6)Man(b1-4)GlcNAc(b1-4)GlcNAc
# Method in brief: as §1
# [13] = target: Neu5Ac(a2-6)Gal(b1-4)GlcNAc(b1-2)Man(a1-6)[Gal(b1-4)GlcNAc(b1-2)Man(a1-3)]Man(b1-4)GlcNAc(b1-4)GlcNAc
# Method in brief: as §1
# [14] = target: Neu5Ac(a2-6)Gal(b1-4)GlcNAc(b1-2)Man(a1-6)[GlcNAc(b1-2)Man(a1-3)]Man(b1-4)GlcNAc(b1-4)GlcNAc
# Method in brief: as §1
# [15] = target: Neu5Ac(a2-6)Gal(b1-4)GlcNAc(b1-2)Man(a1-6)[Man(a1-3)]Man(b1-4)GlcNAc(b1-4)GlcNAc
# Method in brief: as §1
# [16] = target: Neu5Ac(a2-6)Gal(b1-4)GlcNAc(b1-2)[Neu5Ac(a2-6)Gal(b1-4)GlcNAc(b1-4)]Man(a1-3)[GlcNAc(b1-4)][Neu5Ac(a2-6)Gal(b1-4)GlcNAc(b1-2)[Neu5Ac(a2-6)Gal(b1-4)GlcNAc(b1-6)]Man(a1-6)]Man(b1-4)GlcNAc(b1-4)GlcNAc
# Method in brief: as §1
# [17] = target: Neu5Ac(a2-6)Gal(b1-4)GlcNAc(b1-2)[Neu5Ac(a2-6)Gal(b1-4)GlcNAc(b1-4)]Man(a1-3)[GlcNAc(b1-4)][Neu5Ac(a2-6)Gal(b1-4)GlcNAc(b1-4)Man(a1-6)]Man(b1-4)GlcNAc(b1-4)GlcNAc
# Method in brief: as §1
# [18] = target: Neu5Ac(a2-6)Gal(b1-4)GlcNAc(b1-2)[Neu5Ac(a2-6)Gal(b1-4)GlcNAc(b1-6)]Man(a1-6)[Neu5Ac(a2-6)Gal(b1-4)GlcNAc(b1-2)Man(a1-3)][GlcNAc(b1-4)]Man(b1-4)GlcNAc(b1-4)GlcNAc
# Method in brief: as §1
# [19] = target: Neu5Ac(a2-6)Gal(b1-4)GlcNAc(b1-3)Gal(b1-3)GlcNAc
# Method in brief: as §1
# [20] = target: Neu5Ac(a2-6)Gal(b1-4)GlcNAc(b1-3)Gal(b1-4)GlcNAc
# Method in brief: as §1
# [21] = target: Neu5Ac(a2-6)Gal(b1-4)GlcNAc(b1-3)Gal(b1-4)GlcNAc(b1-2)Man(a1-3)[Neu5Ac(a2-6)Gal(b1-4)GlcNAc(b1-3)Gal(b1-4)GlcNAc(b1-2)Man(a1-6)]GalNAc
# Method in brief: as §1
# [22] = target: Neu5Ac(a2-6)Gal(b1-4)GlcNAc(b1-3)Gal(b1-4)GlcNAc(b1-3)Gal(b1-4)GlcNAc
# Method in brief: as §1
# [23] = target: Neu5Ac(a2-6)Gal(b1-4)GlcNAc(b1-3)Gal(b1-4)GlcNAc(b1-3)Gal(b1-4)GlcNAc(b1-2)Man(a1-3)[Neu5Ac(a2-6)Gal(b1-4)GlcNAc(b1-3)Gal(b1-4)GlcNAc(b1-3)Gal(b1-4)GlcNAc(b1-2)Man(a1-6)]GalNAc
# Method in brief: as §1
# [24] = target: Neu5Ac(a2-6)Gal(b1-4)GlcNAc(b1-3)Gal(b1-4)GlcNAc(b1-3)GalNAc
# Method in brief: as §1
# [25] = target: Neu5Ac(a2-6)Gal(b1-4)GlcNAc(b1-3)Gal(b1-4)GlcNAc(b1-3)[Neu5Ac(a2-6)Gal(b1-4)GlcNAc(b1-3)Gal(b1-4)GlcNAc(b1-6)]GalNAc
# Method in brief: as §1
# [26] = target: Neu5Ac(a2-6)Gal(b1-4)GlcNAc(b1-3)Gal(b1-4)GlcNAc(b1-6)[Gal(b1-3)]GalNAc
# Method in brief: as §1
# [27] = target: Neu5Ac(a2-6)Gal(b1-4)GlcNAc(b1-3)Gal(b1-4)[Fuc(a1-3)]GlcNAc(b1-3)Gal(b1-4)[Fuc(a1-3)]GlcNAc
# Method in brief: as §1
# [28] = target: Neu5Ac(a2-6)Gal(b1-4)GlcNAc(b1-3)GalNAc
# Method in brief: as §1
# [29] = target: Neu5Ac(a2-6)Gal(b1-4)GlcNAc(b1-3)[Neu5Ac(a2-6)Gal(b1-4)GlcNAc(b1-6)]GalNAc
# Method in brief: as §1
# [30] = target: Neu5Ac(a2-6)Gal(b1-4)GlcNAc(b1-6)GalNAc
# Method in brief: as §1
# [31] = target: Neu5Ac(a2-6)Gal(b1-4)GlcNAc(b1-6)[Gal(b1-3)GlcNAc(b1-3)]Gal(b1-4)Glc
# Method in brief: as §1
# [32] = target: Neu5Ac(a2-6)Gal(b1-4)GlcNAc(b1-6)[Gal(b1-3)]GalNAc
# Method in brief: as §1
# [33] = target: Neu5Ac(a2-6)Gal(b1-4)GlcNAc6S
# Method in brief: as §1
# Neu5Ac(a2-6)GalNAc = target: Neu5Ac(a2-6)GalNAc
# Method in brief: as §1
# [34] = target: Neu5Ac(a2-6)GalNAc(b1-4)GlcNAc
# Method in brief: as §1
# [35] = target: Neu5Ac(a2-6)GalNAc(b1-4)GlcNAc6S
# Method in brief: as §1
binder,measurement,setting,value
"Apa (Mycobacterium tuberculosis), Rv1860 (protein) MHQVDPNLTRRKGRLAALAIAAMASASLVTVAVPATANADPEPAPPVPTTAASPPSTAAAPPAPATPVAPPPPAAANTPNAQPGDPNAAPPPADPNAPPPPVIAPNAPQPVRIDNPVGGFSFALPAGWVESDAAHFDYGSALLSKTTGDPPFPGQPPPVANDTRIVLGRLDQKLYASAEATDSKAAARLGSDMGEFYMPYPGTRINQETVSLDANGVSGSASYYEVKFSDPSKPNGQIWTGVIGSPAANAPDAGPPQRWFVVWLGTANNPVDKGAAKALAESIRPLVAPPPAPAPAPAEPAPAPAPAGEVAPTPTTPTPQRTLPA",glycan array binding signal (z-score),Neu5Ac(a2-6)Gal,-0.371
same,glycan array binding signal (z-score),[1],-0.169
same,glycan array binding signal (z-score),Neu5Ac(a2-6)Gal(b1-4)Glc,-0.379
same,glycan array binding signal (z-score),[2],-0.307
same,glycan array binding signal (z-score),[3],0.488
same,glycan array binding signal (z-score),[4],-0.334
same,glycan array binding signal (z-score),[5],-0.125
same,glycan array binding signal (z-score),[6],-0.489
same,glycan array binding signal (z-score),[7],-0.168
same,glycan array binding signal (z-score),[8],-0.454
same,glycan array binding signal (z-score),[9],-0.473
same,glycan array binding signal (z-score),[10],-0.16
same,glycan array binding signal (z-score),[11],-0.176
same,glycan array binding signal (z-score),[12],-0.312
same,glycan array binding signal (z-score),[13],-0.431
same,glycan array binding signal (z-score),[14],-0.421
same,glycan array binding signal (z-score),[15],-0.289
same,glycan array binding signal (z-score),[16],-0.332
same,glycan array binding signal (z-score),[17],-0.276
same,glycan array binding signal (z-score),[18],-0.515
same,glycan array binding signal (z-score),[19],-0.548
same,glycan array binding signal (z-score),[20],-0.502
same,glycan array binding signal (z-score),[21],-0.349
same,glycan array binding signal (z-score),[22],-0.637
same,glycan array binding signal (z-score),[23],0.652
same,glycan array binding signal (z-score),[24],-0.538
same,glycan array binding signal (z-score),[25],0.668
same,glycan array binding signal (z-score),[26],-0.533
same,glycan array binding signal (z-score),[27],-0.125
same,glycan array binding signal (z-score),[28],0.214
same,glycan array binding signal (z-score),[29],-0.309
same,glycan array binding signal (z-score),[30],1.09
same,glycan array binding signal (z-score),[31],-0.059
same,glycan array binding signal (z-score),[32],-0.396
same,glycan array binding signal (z-score),[33],0.026
same,glycan array binding signal (z-score),Neu5Ac(a2-6)GalNAc,-0.504
same,glycan array binding signal (z-score),[34],-0.549
same,glycan array binding signal (z-score),[35],0.18
